Several values for one entry are separate records, joined by “and”; a condition that tells them apart may be missing. Equal values may be shown once. About 16,000 (7.3%) of roughly 220,000 compounds were called active. This list was built around the results that the source calls inconclusive (neither active nor inactive); the mix of calls is not that of the screen. The call rests on the fitted dose curve; in most records, active means well fitted inhibition curve with a large enough effect (not every such curve was filed as active); inconclusive means small, poorly fitted or top-dose-only effect, or another doubt; inactive means no such curve, though single readings can be large or run the other way. A potency beside an inconclusive call is a rough fit, not a confirmed value.
target: Aldehyde dehydrogenase 1A1 (Homo sapiens) (UniProt P00352); assay: qHTS Assay for Inhibitors of Aldehyde Dehydrogenase 1 (ALDH1A1); conditions: Purified ALDH1A1, NADH fluorescence, propionaldehyde substrate; series mostly up to 75.3 µM
Potency means the concentration at half of the fitted maximal effect; tags describe the fitted curve by direction and shape.

Chain of UniProt P00352 (P00352 whole entry, looked up): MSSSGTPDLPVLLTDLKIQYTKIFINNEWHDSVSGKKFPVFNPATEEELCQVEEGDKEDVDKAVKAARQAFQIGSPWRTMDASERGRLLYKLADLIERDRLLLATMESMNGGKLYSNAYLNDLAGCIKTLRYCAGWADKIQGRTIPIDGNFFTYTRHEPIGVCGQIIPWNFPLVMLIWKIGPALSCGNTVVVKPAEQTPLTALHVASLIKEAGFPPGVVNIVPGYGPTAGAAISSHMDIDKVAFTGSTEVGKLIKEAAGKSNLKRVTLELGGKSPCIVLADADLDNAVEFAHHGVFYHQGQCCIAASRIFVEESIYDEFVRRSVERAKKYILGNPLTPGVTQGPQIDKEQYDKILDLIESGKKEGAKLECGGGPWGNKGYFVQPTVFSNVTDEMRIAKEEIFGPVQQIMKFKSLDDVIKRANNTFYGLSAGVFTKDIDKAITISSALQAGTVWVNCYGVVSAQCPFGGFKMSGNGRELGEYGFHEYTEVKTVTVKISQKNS

SMILES	Potency
COc1ccc(N/C=C2\CCc3ccccc3C2=O)cc1	inconclusive: 12.6 µM [inhibitor, partial curve]
Cc1ccc(S(=O)(=O)N2CCN(C(=O)CCC(=O)NCCc3ccc(F)cc3)CC2)cc1	inactive
Cc1ccc2[nH]c3c(=O)n(CCc4cnc[nH]4)cnc3c2c1	inconclusive: 39.8 µM [inhibitor, single point]
CN(C)c1ccc(P(=O)(OCc2ccccc2)C(O)c2ccncc2)cc1 (stereo not given)	inconclusive: 20 µM [inhibitor, partial curve, poor fit]
CCC(c1nnnn1CCOC)N1CCN(C(=O)c2ccco2)CC1 (stereo not given)	inconclusive: 44.7 µM [inhibitor, single point]
Cc1ccc(C(=O)N2c3ccccc3CC2C)o1 (stereo not given)	inconclusive: 39.8 µM [inhibitor, single point]
CC1CCCN(CCCOc2ccc(Cl)cc2Br)C1 (stereo not given)	inconclusive: 22.4 µM [inhibitor, single point]
Cc1ccc(C(=O)NCC(=O)OC(C)C(=O)Nc2ccc(N(C)C)cc2)s1 (stereo not given)	inconclusive: 39.8 µM [inhibitor, single point]
c1csc(CNc2ccc3c(c2)OCCO3)c1	inconclusive: 39.8 µM [inhibitor, single point]
Cc1ccccc1NC(=O)CSc1nnc(-c2ccco2)c(-c2ccco2)n1	active: 1.26 µM
COc1ccccc1C1C2=C(CC(C)(C)CC2=O)Nc2nnnn21 (stereo not given)	active: 25.1 µM
CCC(=O)c1ccc(N2CCN(C(=O)c3ccc(Br)cc3)CC2)c(F)c1	inconclusive: 39.8 µM [inhibitor, single point]
CCN(CC)c1ccc(S(=O)(=O)N2CCOCC2)cc1NC(=O)c1cc(=O)c2ccccc2o1	inconclusive: 12.6 µM [inhibitor, single point]
O=C1c2oc3ccccc3c(=O)c2C(c2cccs2)N1CCCN1CCOCC1 (stereo not given)	inconclusive: 39.8 µM [inhibitor, single point]
CCCCOC(=O)Sc1nc2ccccc2o1	inconclusive: 23.8 µM [inhibitor, single point]
CCCCc1ccc(NC(=S)NCc2cccs2)cc1	inactive
Cc1sc(NC(=S)NC(=O)C(C)(C)C)c(C(N)=O)c1C	active: 7.94 µM
CCS(=O)(=O)N1CCCC(C(=O)NC2CCCCC2C)C1 (stereo not given)	inactive
C/C=C(/C)C(=O)O[C@@H]1c2c(ccc3ccc(=O)oc23)O[C@@H]1C(C)(C)OC(C)=O	inconclusive: 39.8 µM [inhibitor, single point]
COc1ccccc1Nc1nc2c(s1)CCC2	active: 17.8 µM
Cc1cccc(S(=O)(=O)Nc2ccc(-c3nc4ccc(C)cc4s3)cc2)c1	inconclusive: 28.2 µM [inhibitor, partial curve]
O=C(/C=C/c1ccco1)Nc1cccnc1	active: 28.2 µM
COc1ccc(/C=C2\C(=O)N(c3c(Cl)cc(Cl)cc3Cl)N=C2NC(=O)c2cccc([N+](=O)[O-])c2)cc1	inconclusive: 22.4 µM [inhibitor, partial curve]
COc1ccccc1CNc1ncnc2cc(Cl)ccc12	inconclusive: 39.8 µM [inhibitor, single point]

SMILES	Potency
Cc1ccc(NC(=O)CSc2nnc(-c3cccs3)n2Cc2ccco2)cc1	inactive
CCOc1ccc(N2C(=O)CC(N(O)c3ccccc3)C2=O)cc1 (stereo not given)	inconclusive: 39.8 µM [inhibitor, single point]
CC(C)CCNC(=O)C(CC(C)C)N(Cc1ccc2c(c1)OCO2)C(=O)c1snc(C(N)=O)c1N (stereo not given)	inconclusive: 39.8 µM [inhibitor, single point]
Cc1ccc2c(COn3nnc4ccc(S(=O)(=O)N(C)C)cc43)cc(=O)oc2c1C	inconclusive: 6.31 µM [inhibitor, single point]
COc1ccc(Cn2c3nc4ccccc4nc3c3c(=O)n(Cc4ccco4)c(C)nc32)cc1	inconclusive: 39.8 µM [inhibitor, single point]
COc1ccc2nc(NNC(=O)COc3ccccc3)sc2c1	active: 20 µM
Cc1ccc(NC(=O)N(CCCN2CCOCC2)Cc2cc3cc4c(cc3[nH]c2=O)OCO4)cc1	inconclusive: 23.8 µM [inhibitor, partial curve]
CC(C)(C)c1ccc(Cn2nnc3c(=O)[nH]c(C4CCCN(C(=O)Cc5cccs5)C4)nc32)cc1 (stereo not given)	inconclusive: 39.8 µM [inhibitor, single point]
Cc1occc1C(=O)Nc1cccc2ccccc12	inconclusive: 39.8 µM [inhibitor, single point]
Clc1ccc(OCc2nnc(SCc3nnc(-c4ccccc4)o3)o2)c(Cl)c1	inconclusive: 22.4 µM [inhibitor, partial curve]
COc1cc2[nH]c(=S)n(C3CCCC3)c(=O)c2cc1OC	inconclusive: 10 µM [inhibitor, partial curve]
O=C(C1CCN(S(=O)(=O)c2ccc(Br)s2)CC1)N1CCN(C2CCCCC2)CC1	inactive
COCc1nnc(NC(=O)c2ccc(NC(C)=O)cc2)s1	inconclusive: 39.8 µM [inhibitor, single point]
c1ccc(-c2noc(-c3ccc4ccccc4c3)n2)nc1	inconclusive: 37.7 µM [inhibitor, single point]
Cc1cccc(NC(=S)NNC(=O)c2ccccc2OC(F)F)c1	active: 9.46 µM
Cc1ccc(S(=O)(=O)NNC(=O)CCC(=O)Nc2ccccc2)cc1	inactive
O=C(O)CSc1cccc2cccnc12	inconclusive: 22.4 µM [inhibitor, partial curve] and inconclusive: 28.2 µM [inhibitor, partial curve]
CSc1nc2sc3c(c2c2nnnn12)CCC3	inconclusive: 28.2 µM [inhibitor, single point]
CCC1CCCCN1c1nc(-c2ccncc2)nc2ccccc12 (stereo not given)	inconclusive: 39.8 µM [inhibitor, single point]
COc1ccc(C(NC(=O)c2cccnc2)c2cc(Cl)c3cccnc3c2O)cc1OC (stereo not given)	inactive
CC(C)c1ccc(/C=C2\CC/C(=C\C=N\N(C)C)C2=O)cc1	active: 0.398 µM
COc1ccccc1C1CC(=O)Oc2cc(OC)c(OC)c(OC)c21 (stereo not given)	inconclusive: 56.2 µM [inhibitor, single point]
Cc1ccc(C(=O)CSc2nnc3c4ccccc4nc(Cc4ccccc4)n23)cc1	inconclusive: 1.26 µM [inhibitor, full curve, poor fit]
O=C(NCCCN1CCN(c2ccccc2F)CC1)C1CCCN(S(=O)(=O)c2cnc[nH]2)C1 (stereo not given)	inconclusive: 28.2 µM [inhibitor, partial curve, poor fit]

SMILES	Potency
COC(=O)C1=CN(Cc2cccs2)C=C(C(=O)OC)C1c1cccc(Cl)c1	inconclusive: 25.1 µM [inhibitor, partial curve]
COC(=O)c1ccc(CSc2nnc(CS(=O)Cc3ccc(Br)cc3)n2-c2ccccc2)cc1 (stereo not given)	inconclusive: 39.8 µM [inhibitor, single point]
Cc1ccc(/C=C/C(=O)c2ccccc2)cc1	inconclusive: 35.5 µM [inhibitor, single point]
CC(C)(O)C#Cc1ccc(CN2CCN(Cc3ccsc3)C(CCO)C2)s1 (stereo not given)	inactive
Cc1ccc(/C(O)=C2/C(=O)C(=O)OC2c2ccc(Cl)cc2)cc1 (stereo not given)	inconclusive: 12.6 µM [inhibitor, partial curve]
CCOc1ccc(NC(=O)NCC2CCN(c3ccc(OC)cc3)C2)cc1 (stereo not given)	inconclusive: 39.8 µM [inhibitor, single point]
COc1cc2c(cc1OC)CN(Cc1cccs1)CC2	inconclusive: 39.8 µM [inhibitor, single point]
C(=N\Nc1ccccn1)/c1ccc(N2CCOCC2)cc1	inconclusive: 39.8 µM [inhibitor, single point]
Cc1[nH]n2c(=O)c3c(nc2c1-c1cccc2ccccc12)CCC3	inactive
CC(C)(C)C(=O)Nc1nc2ccc(S(C)(=O)=O)cc2s1	inconclusive: 39.8 µM [inhibitor, single point]
COc1ccc(C(=O)N=c2sc3ccccc3n2C)cc1OC	inconclusive: 35.5 µM [inhibitor, single point]
COc1ccc(NC(=O)C2CCC(CNS(=O)(=O)c3cccs3)CC2)cc1OC (stereo not given)	active: 5.01 µM
Cc1cc(C)c(NC(=O)c2ccccc2C(=O)c2ccccc2)c(C)c1	inactive
NC(Cc1cc(I)c(Oc2cc(I)c(O)c(I)c2)c(I)c1)C(=O)O (stereo not given)	active: 15.8 µM
O=C(O)c1sc2cc(C(F)(F)F)cnc2c1-c1cccs1	inconclusive: 31.6 µM [inhibitor, single point]
COc1ccc(C=NCCCN2CCOCC2)cc1	active: 20 µM
Cc1cc(C)c2nc(NC(=O)C3CC(=O)N(Cc4ccco4)C3)sc2c1 (stereo not given)	inconclusive: 39.8 µM [inhibitor, single point]
O=C(CCc1ccccc1)Nc1ccc2c(c1)OCCO2	inactive
CCN(CC)CCOC(=O)c1ccc(NC(=O)CNC(=O)c2ccccc2)cc1	inconclusive: 25.1 µM [inhibitor, single point]
Nc1ccc(Oc2ccc3nc(-c4ccccc4)c(-c4ccccc4)nc3c2)cc1	inconclusive: 10 µM [inhibitor, partial curve]
CCc1ccc(-c2csc3ncn(CC)c(=O)c23)cc1	inactive
COCCn1nc2cc(C(=O)NCC34CC5CC(CC(C5)C3)C4)ccc2c1OC	inconclusive: 28.2 µM [inhibitor, partial curve]
